Experimental data reported in the GPR68 mutational scans of Howard et al. (2025).

B1: GPR68, Q15743 (parent)
chain: MGNITADNSSMSCTIDHTIHQTLAPVVYVTVLVVGFPANCLSLYFGYLQIKARNELGVYLCNLTVADLFYICSLPFWLQYVLQHDNWSHGDLSCQVCGILLYENIYISVGFLCCISVDRYLAVAHPFRFHQFRTLKAAVGVSVVIWAKELLTSIYFLMHEEVIEDENQHRVCFEHYPIQAWQRAINYYRFLVGFLFPICLLLASYQGILRAVRRSHGTQKSRKDQIQRLVLSTVVIFLACFLPYHVLLLVRSVWEASCDFAKGVFNAYHFSLLLTSFNCVADPVLYCFVSETTHRDLARLRGACLAFLTCSRTGRAREAYPLGAPEASGKSGAQGEEPELLTKLHPAFQTPNSPGSGGFPTGRLA

Legend:
[1] = variants of: B1; experiment: cAMP reporter score (Enrich2 score, wild type = 0); higher = more signal; HEK293T, FACS bins
[2] = variants of: B1; experiment: surface expression score (Enrich2 score, wild type = 0); higher = more signal; HEK293T, FACS bins

Variant	cAMP reporter score ([1]; pH 5.5)	cAMP reporter score ([1]; pH 6)	cAMP reporter score ([1]; pH 6, modulator: ogerin)	cAMP reporter score ([1]; pH 6.5, modulator: ogerin)	surface expression score [2]
S331D	0.508	-0.049	0.617	0.717	0.095
S331E	0.308	-0.807	0.208	-0.317	0.113
S331F	0.581	–	0.405	0.918	-0.096
S331G	1.03	0.851	–	–	1.64
S331H	-0.048	0.251	0.611	0.315	0.156
S331I	-0.729	–	0.042	–	-0.957
S331K	0.02	0.34	0.253	0.276	0.651
S331L	2.21	1.04	2.04	1.77	0.94
S331M	0.207	1.69	1.2	1.8	0.764
S331N	0.385	–	-0.729	-0.401	-0.312
S331P	0.006	-0.383	0.757	0.274	1.29
S331Q	1.2	0.179	0.571	0.89	1.19
S331R	1.07	-0.733	0.887	1.03	1.55
S331T	1.9	1.03	1.56	1.66	2.14
S331W	1.29	1.79	1.26	2.46	–
S331Y	-0.465	-0.342	-0.649	-1.42	-1.82
S331_G332del	0.864	-0.4	0.418	0.465	0.45
S331_G332insG	0.283	–	0.424	0.489	0.879
S331_G332insGS	0.723	1.06	0.545	0.989	0.412
G332A	1.01	-0.007	0.771	0.641	0.58
G332C	0.419	-0.044	0.528	0.75	0.602
G332D	-0.123	-0.018	-0.451	-0.103	-0.099
G332E	0.315	-0.426	0.555	0.702	1.08
G332F	1.08	-0.963	0.63	0.56	0.969
G332H	0.611	0.361	-0.196	-0.275	1.42
G332I	1.37	0.064	1.59	0.075	-0.237

Variant	cAMP reporter score ([1]; pH 5.5)	cAMP reporter score ([1]; pH 6)	cAMP reporter score ([1]; pH 6, modulator: ogerin)	cAMP reporter score ([1]; pH 6.5, modulator: ogerin)	surface expression score [2]
G332K	0.112	-0.169	0.486	0.009	0.537
G332L	-0.373	0.201	-0.599	-0.401	-0.476
G332M	0.932	–	0.916	–	2.83
G332N	0.255	-0.258	0.326	0.188	0.179
G332P	0.514	0.588	0.629	0.262	0.772
G332Q	0.795	0.673	1.04	1.05	1.2
G332R	1.15	0.461	1.75	1.4	1
G332S	0.756	0.394	1.2	0.274	0.415
G332T	-0.053	-1.14	-0.266	-0.456	-0.117
G332V	0.508	0.214	-0.074	0.706	-0.049
G332W	0.659	-0.217	0.526	0.294	0.597
G332Y	0.291	-0.455	0.228	-0.56	-0.014
G332_A333insGS	0.392	-0.097	0.638	0.355	0.72
G332_A333insGSG	0.106	-0.024	0.356	0.896	0.352
G332del	0.795	0.111	0.888	0.669	1.62
A333_Q334insG	-0.293	0.203	0.473	1.1	0.854
Q334_E336del	-0.05	0.301	0.107	0.284	0.375
Q334_G335del	0.582	0.04	0.394	-0.054	0.398
Q334_G335insGS	1.24	–	0.739	1.38	–
Q334del	0.26	0.347	0.771	0.974	-0.554
G335_E336del	0.704	0.848	0.36	0.789	0.875
G335del	-0.461	–	-0.391	–	0.162
E336_P338del	1.4	2.08	1.2	1.75	1.49
E336del	1.6	0.427	0.72	1.64	1.15
E337_E339del	-0.552	0.334	0.001	-0.185	-0.658
E337_P338insGS	0.355	-0.534	1.23	0.641	1.67

Variant	cAMP reporter score ([1]; pH 5.5)	cAMP reporter score ([1]; pH 6)	cAMP reporter score ([1]; pH 6, modulator: ogerin)	cAMP reporter score ([1]; pH 6.5, modulator: ogerin)	surface expression score [2]
P338A	0.152	-0.119	-0.434	-0.418	0.513
P338C	0.73	–	0.197	0.213	0.731
P338D	1.42	0.311	0.851	-0.243	1.05
P338E	1.34	-0.57	-0.042	-0.403	–
P338F	0.046	-1.58	-0.197	0.242	0.341
P338G	-0.294	-0.538	0.171	-0.366	0.014
P338H	0.608	-0.216	1.42	1.4	0.737
P338I	0.677	0.307	0.519	0.046	0.946
P338K	-0.368	-0.619	-0.637	0.184	-0.057
P338M	-0.324	-0.943	0.197	-0.206	-0.26
P338N	1.1	-0.016	0.506	0.374	0.57
P338Q	0.686	-0.371	0.254	0.095	-0.706
P338R	0.323	–	1.09	1.05	0.777
P338S	-0.485	–	-1.47	-0.395	-0.434
P338T	0.475	-0.769	0.205	0.048	-0.452
P338V	0.845	1.5	0.732	1.31	0.697
P338W	0.321	-1.58	-0.483	-0.934	-0.582
P338Y	-0.471	0.595	-0.627	0.451	-0.172
P338_E339del	0.381	0.985	0.125	0.61	-0.157
P338_E339insGS	0.339	0.27	0.766	-0.087	1.12
P338_E339insGSG	0.918	1.39	0.669	1.11	1.54
P338_L340del	0.961	–	0.624	0.826	1.71
E339_L340del	0.662	0.912	1.02	0.121	0.927
E339_L340insGS	0.631	–	0.563	1.34	0.724
E339_L340insGSG	-0.07	1.39	0.425	1.03	0.434
E339del	-0.377	-0.215	-0.158	-0.491	-0.334

Variant	cAMP reporter score ([1]; pH 5.5)	cAMP reporter score ([1]; pH 6)	cAMP reporter score ([1]; pH 6, modulator: ogerin)	cAMP reporter score ([1]; pH 6.5, modulator: ogerin)	surface expression score [2]
L340_L341del	0.569	-0.094	0.314	0.541	0.199
L340_L341insG	0.346	2.67	1.4	0.871	1.32
L340del	0.621	0.222	0.494	-0.061	0.878
L341_T342insGS	-0.865	-0.565	-0.299	-0.631	0.092
T342_K343del	0.984	1.09	1.2	0.661	0.588
T342_K343insGSG	0.266	0.537	0.161	1.07	0.133
K343A	1.01	1.84	0.849	1.39	0.951
K343C	0.579	–	–	–	0.75
K343D	0.575	0.329	0.546	-0.24	2.75
K343E	-0.429	0.15	-0.417	-0.069	-0.119
K343F	1.45	-0.191	0.823	0.469	1.77
K343G	1.53	0.386	1.29	1.35	1.21
K343H	0.705	0.608	0.933	0.704	0.585
K343I	-0.342	-0.514	0.716	0.302	1.15
K343L	1.14	-0.965	1.26	–	-0.054
K343M	-0.712	-0.616	-0.3	-0.344	-0.066
K343N	-0.451	-0.076	-0.782	-0.135	0.123
K343P	1.76	–	1.37	1.78	1.31
K343R	0.394	-0.171	0.393	0.121	0.664
K343S	0.947	0.217	0.581	1.73	0.843
K343T	0.361	1.03	1.09	0.986	1.15
K343V	0.23	–	0.422	0.589	1.3
K343W	-0.344	-0.162	0.026	-0.72	0.288
K343Y	0.308	-0.909	0.553	-0.975	0.626
K343_H345del	0.6	-0.431	0.533	1.71	0.807
K343_L344insGS	1.16	0.815	0.977	1.14	0.832

Variant	cAMP reporter score ([1]; pH 5.5)	cAMP reporter score ([1]; pH 6)	cAMP reporter score ([1]; pH 6, modulator: ogerin)	cAMP reporter score ([1]; pH 6.5, modulator: ogerin)	surface expression score [2]
L344A	1.23	0.201	1.05	1.58	1.45
L344C	-0.485	–	0.203	-0.343	-0.8
L344D	0.003	1.23	0.134	0.564	-0.725
L344E	0.251	0.975	0.124	0.824	1.05
L344F	0.847	1.62	0.798	0.736	0.296
L344G	0.069	0.778	0.89	0.531	0.609
L344H	0.88	1.93	0.443	1.73	1.36
L344I	1.68	0.958	0.449	0.937	1.21
L344K	0.721	0.874	1.06	0.982	1.27
L344M	-0.741	0.008	-1.32	-0.213	0.336
L344N	0.37	2.27	0.442	-0.058	1.28
L344P	-0.58	-0.358	-0.838	-0.349	-0.554
L344Q	0.376	2.65	0.794	0.818	–
L344R	0.772	0.589	0.672	1.22	1.67
L344S	0.598	–	0.757	1.94	1.21
L344T	1.08	–	0.364	–	-0.243
L344V	0.589	0.51	0.512	0.587	0.906
L344W	1.04	0.227	0.722	1.37	0.613
L344Y	0.233	0.063	-0.087	1.26	0.238
L344_H345insGS	0.588	0.236	0.18	0.51	0.814
H345A	1.18	–	2.17	1.61	1.69
H345C	0.545	-0.798	0.411	0.978	0.768

Scores whose standard error is large were omitted. Not listed are two conditions whose scores span a narrow range. Names with del lack the residues named; names with ins carry added residues between the positions named. For some of these results: How much ogerin was present is not stated here.
